# Among all 310,000 compounds or so, about 2,200 (0.71%) showed an effect of 50% or more. The effect is printed as a negative number. The list shows a part of the results.
# Molecular target: human ether-à-go-go-related gene (hERG) potassium channel (human, UniProt Q12809)
# Assay: primary screen, population patch clamp on CHO cells stably expressing hERG
# Chain of human ether-à-go-go-related gene (hERG) potassium channel (Q12809 whole entry, looked up): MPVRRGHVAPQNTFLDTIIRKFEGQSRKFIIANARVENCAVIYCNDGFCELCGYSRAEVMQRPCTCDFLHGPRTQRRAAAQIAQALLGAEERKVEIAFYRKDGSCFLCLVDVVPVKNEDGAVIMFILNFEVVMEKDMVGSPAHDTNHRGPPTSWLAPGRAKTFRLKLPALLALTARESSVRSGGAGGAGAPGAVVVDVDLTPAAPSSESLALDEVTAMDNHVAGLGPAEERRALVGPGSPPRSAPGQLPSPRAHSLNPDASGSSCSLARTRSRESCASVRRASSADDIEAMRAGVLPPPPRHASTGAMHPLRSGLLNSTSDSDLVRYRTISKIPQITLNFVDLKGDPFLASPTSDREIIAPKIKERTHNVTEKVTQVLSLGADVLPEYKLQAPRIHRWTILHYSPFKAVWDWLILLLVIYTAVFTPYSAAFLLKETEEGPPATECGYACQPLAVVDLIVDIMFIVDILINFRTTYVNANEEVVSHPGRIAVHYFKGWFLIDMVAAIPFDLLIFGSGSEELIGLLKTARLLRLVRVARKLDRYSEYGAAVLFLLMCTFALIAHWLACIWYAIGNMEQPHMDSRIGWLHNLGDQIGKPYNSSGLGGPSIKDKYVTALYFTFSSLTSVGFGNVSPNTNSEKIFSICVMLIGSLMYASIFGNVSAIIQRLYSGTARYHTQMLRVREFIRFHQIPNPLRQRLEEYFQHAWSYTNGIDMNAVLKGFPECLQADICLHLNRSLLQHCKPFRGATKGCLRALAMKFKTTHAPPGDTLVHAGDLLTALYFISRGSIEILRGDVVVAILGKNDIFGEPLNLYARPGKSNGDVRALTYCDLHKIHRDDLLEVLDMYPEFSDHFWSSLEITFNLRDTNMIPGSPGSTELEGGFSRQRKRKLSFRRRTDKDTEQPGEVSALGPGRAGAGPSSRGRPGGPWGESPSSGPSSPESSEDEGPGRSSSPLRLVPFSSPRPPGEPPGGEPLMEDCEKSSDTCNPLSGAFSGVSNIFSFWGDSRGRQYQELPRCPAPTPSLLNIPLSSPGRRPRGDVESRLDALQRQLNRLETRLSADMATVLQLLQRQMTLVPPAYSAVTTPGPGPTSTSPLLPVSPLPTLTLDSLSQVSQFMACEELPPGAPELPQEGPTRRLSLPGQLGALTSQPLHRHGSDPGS
row,Compound,"hERG current change (%, negative = inhibition) at 1uM [%]"
1,O=[N+]([O-])CC1(n2nc3ccccc3n2)CCCCC1,7.5
2,C=CCNc1nc(C(=O)OCC(=O)c2ccc(F)cc2)cs1,1.73
3,CCOC(=O)C1CCCN(c2c(NCCCN(CC)c3cccc(C)c3)c(=O)c2=O)C1 (centres unmarked),5.21
4,c1ccc2c(c1)nc(N1CCOCC1)c1nncn12,-6.2
5,CC(C)CN1CCC(C(=O)NCC2CCCO2)CC1.O=C(O)C(=O)O (centres unmarked),3.58
6,CC(NC(=O)CCCCCCN1C(=O)c2ccccc2C1=O)c1ccc2c(c1)CCCC2 (centres unmarked),10.7
7,Cc1ccc(NS(=O)(=O)c2ccc(C)c(C(=O)N3CCOCC3)c2)cc1,6.95
8,CC(=O)OCc1ccccc1Sc1ccccc1C(=O)NCc1ccccc1,8.25
9,CSCCC(Nc1ccc(S(=O)(=O)N2CCOCC2)cc1[N+](=O)[O-])C(=O)OCC(=O)N(C(C)C)C(C)C (centres unmarked),-0.777
10,COc1ccc(Cc2nc(-c3ccncc3)no2)cc1,2.33
11,CCOP(=O)(OCC)c1nc(-c2cccc3ccccc23)oc1N1CCOCC1,9.37
12,N#Cc1cn(-c2ccccc2)nc1-c1ccc2c(c1)OCCO2,13.3
13,O=[N+]([O-])c1cc(S(=O)(=O)N2CCCC2)ccc1SCCO,2.97
14,Cc1cc(-n2c(C)cc(C(=O)CSc3nnnn3-c3ccc(Cl)cc3)c2C)no1,9.82
15,O=C(CSc1nc2ccccc2s1)NC1CCCC1,5.36
16,CSC1=NSC2=NC(=O)/C(=C\c3ccc(OC(=O)c4ccco4)cc3)C(=N)N12,5.28
17,COC(=O)CSc1nnc(CNC(=O)c2ccc(OC)cc2OC)n1C,-2.35
18,Cc1ccc(C)c(CSc2nnc(-c3cccnc3)n2N)c1,8.55
19,COC(=O)C1=C(C)NC(=O)CC1c1ccccc1F (centres unmarked),7.53
20,FC(F)(F)c1cccc(NC(=S)NCc2ccc(Cl)cc2)c1,10.9
21,CNC(=O)CN1C(=O)NC(Cc2c[nH]c3ccccc23)C1=O (centres unmarked),-7.61
22,Cn1c(O)c(C=NC2CCN(Cc3ccccc3)CC2)c(=O)[nH]c1=O,4.52
23,CCN1CCc2c(OCc3ccc(C(=O)OC)o3)cccc2C1=O,7.05

row,Compound,"hERG current change (%, negative = inhibition) at 1uM [%]"
1,COc1ccc(-c2cnn(-c3ccccc3)c2N)cc1OC,7.37
2,Cc1ccc(S(=O)(=O)Nc2ncnc3ccccc23)cc1,10.6
3,COCCCNC(=O)C1CCCN(S(=O)(=O)c2ccc(C)cc2)C1 (centres unmarked),-0.61
4,CC(C)(C)c1nc(SCC(=O)NCc2cccs2)c2ccccc2n1,4.7
5,Cc1ccc(C(=O)NC(C(=O)OCc2cn3cc(Cl)ccc3n2)C(C)C)cc1 (centres unmarked),6.5
6,CN1C(=O)/C(=C\c2ccc(Br)s2)C(=O)NC1=S,16.1
7,Br.O=C(Cn1c(NCCCO)nc2ccccc21)c1cccs1,-4.05
8,O=C(CN1C(=O)C(=O)c2ccccc21)NCCc1ccccc1,9.49
9,CC(=O)c1cccc(S(=O)(=O)N(C)C2CCN(C)CC2)c1.Cl,-0.127
10,CCCOc1ccccc1/C=C1/C(=O)ON=C1C,11.8
11,CC1=C(C(=O)OC(C)C)C(c2ccc(C)o2)NC(=O)N1 (centres unmarked),-5.32
12,CC(C)Cc1nnc(NC(=O)c2ccncc2)s1,-6.33
13,CCOc1ccc(NC(=O)N2CCC(c3ccc(C)cc3)C2)cc1 (centres unmarked),12.8
14,CC(=O)N1CN2CN(C(C)=O)CC(C(=O)c3ccc([N+](=O)[O-])cc3)(C2)C1,0.729
15,O=C(c1cc(COc2ccc(F)cc2Cl)on1)N1CCN(C2CCCC2)CC1,-19.3
16,COc1c(Br)cc(Br)cc1C(=O)O,12.3
17,O=[N+]([O-])c1ccc(C2CCCC/C2=N/OCc2ccccc2F)c([N+](=O)[O-])c1 (centres unmarked),10.6
18,S=C(NCCc1ccccc1)NC1CCC(NC(=S)NCCc2ccccc2)CC1 (centres unmarked),12.5
19,CCOc1cc(NC(=S)NCCCN(C)C)c(OCC)cc1NC(=O)C1CC1,7.44
20,Cc1ccc(/C=N/c2sc3c(c2C#N)CCC3)s1,-3.51
21,O=c1[nH]cc(-c2ccccc2)c(=O)[nH]1,14.8
22,C=C(C)Cn1c(N2CC(C)CC(C)C2)nc2c1c(=O)[nH]c(=O)n2C (centres unmarked),8.85
23,CC1CCN(C(=O)/C=C/c2ccc(C(C)(C)C)cc2)CC1,-2.14

row,Compound,"hERG current change (%, negative = inhibition) at 1uM [%]"
1,COc1ccc(C(C)=O)cc1COC(=O)c1ccc(C)c(S(=O)(=O)N2CCOCC2)c1,1.21
2,O=C(N/N=C/C(Cl)=C/c1ccccc1)c1cnccn1,2.75
3,COc1ccc(Cn2cccc(NC(=O)Nc3ccc(C#N)cc3)c2=O)cc1,10.5
4,O=C(Nc1ccc(S(=O)(=O)Nc2nccs2)cc1)c1ccccc1OC(F)F,12.2
5,CC(=O)c1ccc(NC(=S)N2CC(C)CC(C)C2)cc1 (centres unmarked),-4.81
6,Oc1ccc(/C=N/n2c(COc3ccccc3)n[nH]c2=S)cc1O,13.1
7,COc1ccc(-c2nnc(SC(C)C(=O)Nc3ccc4c(c3)OCCO4)o2)cc1 (centres unmarked),3.6
8,O=C(COC(=O)c1cccnc1)Nc1cccc2ccccc12,14.1
9,Cc1cccc(Oc2c(C=O)c3ccccc3n2C)c1,8.07
10,O=C(c1ccc(S(=O)(=O)N2CCCCC2)cc1)N1CCc2ccccc2C1,1.18
11,O=c1[nH]nc(-c2ccc(F)cc2)cc1Cc1ccc(F)cc1,-2.71
12,Cn1c(N)c(C(=O)COC(=O)CSc2ccc(Cl)cc2)c(=O)n(C)c1=O,-2.13
13,CCN(C(=O)c1cc2cc3ccc(C)cc3nc2o1)c1ccc(OC)cc1,11
14,CCC1C(=O)NCCN1C(=O)CCc1nnc(CCc2ccc(OC)cc2)o1 (centres unmarked),7.04
15,NC(=O)c1c(NC(=O)Cn2nc(C(=O)O)c3ccccc3c2=O)sc2c1CCCC2,17.2
16,C=CCCCCCCCCc1nc(=S)[nH][nH]1,13.7
17,COc1ccccc1Cn1c(=O)c2ccccc2n2c(SCc3csc(C)n3)nnc12,8.96
18,COCCN1C(=O)N(c2cccc(C)c2)C(=O)C1CC(=O)Nc1ccc(OC)cc1 (centres unmarked),16.9
19,Cc1c(Cl)cccc1N1C(=O)CC(N(O)c2ccccc2)C1=O (centres unmarked),14.5
20,CC1CCc2[nH]c3ccc(C(=O)N(C)CC(=O)Nc4ccccc4C(F)(F)F)cc3c2C1 (centres unmarked),3.78
21,Cc1ccc(C(C)C)c(OCc2ccc(-c3nnco3)cc2)c1,9.34
22,CN1CCc2c(sc(NC(=O)CS(=O)(=O)c3ccccc3)c2C(N)=O)C1.Cl,-0.0637
23,O=C(NCCCN1CCCC1=O)c1ccc(NS(=O)(=O)c2ccc(F)cc2)cc1,10.9

row,Compound,"hERG current change (%, negative = inhibition) at 1uM [%]"
1,N/C(=N\N=C\c1ccco1)SC1CC(=O)N(c2ccccc2)C1=O (centres unmarked),5.55
2,CC1(C(=O)NCC2CCCO2)Oc2cccnc2NC1=O (centres unmarked),7.64
3,COC(=O)CN(C#N)c1nc(N(C)C)nc(N(C)C)n1,-1.03
4,Nc1c(N(Cc2ccccc2)C(=O)COc2cccc(Cl)c2)c(=O)[nH]c(=O)n1Cc1ccccc1,-2.34
5,CNC(=S)N(Cc1cc2cc(OC)c(OC)cc2[nH]c1=O)C1CCCC1,13.7
6,O=C(CCC(=O)OCC(F)(F)C(F)F)Nc1ccccc1F,19
7,CCOC(=O)C1CCN(S(=O)(=O)c2ccc3c(c2)NC(=O)C(C)C(=O)N3)CC1 (centres unmarked),17.7
8,O=C(c1cccs1)n1nc(NCc2ccccc2)nc1NCc1ccccc1,15.9
9,CC(=O)c1c(C(C)=O)c(C)n(Cc2ccc3c(c2)OCO3)c1C,12.2
10,CC1(NC(=O)CN2CCN(c3cnn(-c4ccccc4)c(=O)c3Cl)CC2)CCS(=O)(=O)C1 (centres unmarked),-5.76
11,CC(=O)CCc1oc2ccc(NC(C)=O)cc2c1-c1ccc(C)o1,0.352
12,CCN(CC)CCNC(=O)c1cc(Nc2ccc(OC)c(OC)c2)nc2ccccc12,-6.4
13,Cc1csc(NC(=O)CSc2nsc(SCC(=O)Nc3nc(C)cs3)c2C#N)n1,1.1
14,CCC(c1nnc(SCC(=O)Nc2ccc(S(N)(=O)=O)cc2)n1Cc1ccccc1)N(C)C (centres unmarked),3.56
15,O=C(NCCO)c1ccc2c3n(nc2c1)-c1ccc(Cl)cc1CO3,4.62
16,CCN1C(=O)c2cccc3c(S(=O)(=O)Nc4ccccc4)ccc1c23,4.66
17,CC(C)CN(C(=O)COC(=O)C12CC3CC(CC(C3)C1)C2)c1c(N)n(Cc2ccccc2)c(=O)[nH]c1=O,19.8
18,O=C(Nc1ccccc1)c1ccc(-c2ccccc2C(F)(F)F)o1,-6.18
19,CCC(CC)C(=O)Nc1nnc(-c2cccs2)s1,9.91
20,O=C(CCNS(=O)(=O)c1ccc(OC(F)(F)F)cc1)N1CCN(S(=O)(=O)c2cccc(F)c2)CC1,15.2
